The values that follow come from article PMC4336329 (PLoS ONE, 2015).

Out of some 310,000 compounds screened, about 2,200 (0.71%) showed an effect of 50% or more. The effect is printed as a negative number. The list shows a part of the results.

Chain of human ether-à-go-go-related gene (hERG) potassium channel (Q12809 whole entry, looked up): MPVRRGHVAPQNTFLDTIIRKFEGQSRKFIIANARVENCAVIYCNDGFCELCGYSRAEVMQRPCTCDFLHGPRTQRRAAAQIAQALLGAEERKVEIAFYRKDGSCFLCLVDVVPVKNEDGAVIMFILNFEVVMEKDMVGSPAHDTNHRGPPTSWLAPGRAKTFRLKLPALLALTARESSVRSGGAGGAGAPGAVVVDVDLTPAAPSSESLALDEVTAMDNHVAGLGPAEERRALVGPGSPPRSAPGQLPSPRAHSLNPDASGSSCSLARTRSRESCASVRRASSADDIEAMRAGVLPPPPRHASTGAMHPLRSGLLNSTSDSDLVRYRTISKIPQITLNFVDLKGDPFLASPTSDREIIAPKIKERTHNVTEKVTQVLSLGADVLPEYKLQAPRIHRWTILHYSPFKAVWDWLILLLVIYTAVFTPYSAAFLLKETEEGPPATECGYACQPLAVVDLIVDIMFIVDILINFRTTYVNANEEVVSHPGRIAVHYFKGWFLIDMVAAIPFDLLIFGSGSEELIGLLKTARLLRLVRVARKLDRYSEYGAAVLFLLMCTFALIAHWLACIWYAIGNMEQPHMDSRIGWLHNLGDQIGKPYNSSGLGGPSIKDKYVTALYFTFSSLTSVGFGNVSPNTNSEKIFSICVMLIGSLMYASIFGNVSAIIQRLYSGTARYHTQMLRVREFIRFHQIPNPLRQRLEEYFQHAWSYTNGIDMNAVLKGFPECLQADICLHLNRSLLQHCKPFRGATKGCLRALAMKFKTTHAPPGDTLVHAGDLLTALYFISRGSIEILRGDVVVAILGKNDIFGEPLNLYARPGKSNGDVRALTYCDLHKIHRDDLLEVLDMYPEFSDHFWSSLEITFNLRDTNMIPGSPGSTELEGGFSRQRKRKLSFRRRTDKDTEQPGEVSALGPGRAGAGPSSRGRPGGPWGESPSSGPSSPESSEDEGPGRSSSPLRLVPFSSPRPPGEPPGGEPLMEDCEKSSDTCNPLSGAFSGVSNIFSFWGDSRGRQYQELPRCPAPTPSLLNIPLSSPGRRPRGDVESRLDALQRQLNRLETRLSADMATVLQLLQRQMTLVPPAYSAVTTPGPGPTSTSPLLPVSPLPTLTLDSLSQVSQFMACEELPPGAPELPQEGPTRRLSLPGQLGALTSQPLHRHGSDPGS

The assay addresses human ether-à-go-go-related gene (hERG) potassium channel (human, UniProt Q12809). In words: primary screen, population patch clamp on CHO cells stably expressing hERG.
Consider `Cc1c2cnn(-c3ccccc3)c(=O)c2c(C)n1CCCC(=O)N1CCN(C)CC1`, for which the “hERG current change (%, negative = inhibition) at 1uM” value is reported as -11.5%.
The value for `O=C(CCCSc1nnc(SCCCC(=O)c2ccc(F)cc2)s1)c1ccc(F)cc1` was 15.6%.
The value for `CCc1ccc(NC(=O)CSc2nc(=O)n(CCCN3CCOCC3)c3c2CCCC3)cc1` was -12.5%; that for `COc1ccc(-n2c(=O)c(CCC(=O)N(C)Cc3cccs3)nc3ccccc32)cc1` was 6.29%; that for `COc1cc(NC(=O)c2cc(-n3cnnc3)ccc2Cl)cc(OC)c1` was 9.49%.
The value for `O=C(Nc1cc(Cl)ccc1N1CCOCC1)C1=COCCO1` was 2.9%; that for `O=C(NCc1ccccc1)C1=C[C@H](c2csc3ccccc23)C[C@H](OCCCCO)O1` was 0.004%.
On to `COCCNC(=O)c1ccc2c(c1)S(=O)(=O)c1ccccc1C2=O`, for which the “hERG current change (%, negative = inhibition) at 1uM” value was found to be 11.3%.
The value for `N#C/C(=C\c1c(Cl)cccc1Cl)c1nc2ccccc2[nH]1` was 24.3%; that for `Cc1cccc(C(=O)OCC(=O)N2CCCCCC2)c1` was 6.63%; that for `CC1(C)OC(=O)N(Cc2ccco2)C1(C)O` (stereo not shown) was 12.6%.
The value for `COc1ccc(C(=O)NC(=S)NCC2CCCO2)cc1` (stereo not shown) was 17.2%.
The value for `Cc1cc2nc(-c3ccc(SCc4ccc(C#N)cc4)nc3)[nH]c2cc1C` was 1.91%.
As to `CC(C)(C)n1ncc2c(=O)n(Cc3ccc(Cl)cc3Cl)cnc21`, the “hERG current change (%, negative = inhibition) at 1uM” value was 12.5%.
The value for `CC(OC(=O)Cc1n[nH]c(=O)c2ccccc12)C(=O)Nc1cc(Cl)cc(Cl)c1` (stereo not shown) was -12.4%; that for `O=C(Nc1ccccc1Cl)C1CCCN1C(=O)OCc1ccccc1` (stereo not shown) was 23.1%.
In the case of `Cc1ccc(C)c(CNc2ccc(S(=O)(=O)N3CCCCC3)cc2)c1`, the “hERG current change (%, negative = inhibition) at 1uM” value amounted to 12.1%.
Regarding `CC(C)(C)C(=O)c1cnc(Nc2ccccc2Cl)s1`, the “hERG current change (%, negative = inhibition) at 1uM” value stood at 13.1%.
The value for `COc1ccc(-n2c(COc3cccc4ccccc34)nnc2SC(C)C(=O)O)cc1` (stereo not shown) was 9.31%; that for `COc1cccc(-c2nnn(C/C(N)=N/O)n2)c1` was 9.43%.
The value for `COc1ccc2c(CCNC(=O)c3ccco3)c[nH]c2c1` was 3.65%; that for `CC(CCc1ccc(O)cc1)NC(c1ccccc1)c1ccc(Cl)cc1` (stereo not shown) was 20.5%.
The value for `CCC1Oc2ccccc2N(CC(=O)N2CCOCC2)C1=O` (stereo not shown) was 16.3%; that for `CNC(=O)NC(=S)NC(=O)c1ccc(OC)cc1` was -1.75%.
In the case of `COc1ccc(N(C(=O)CNC(=O)c2ccco2)C(C(=O)NCC2CCCO2)c2ccccc2)cc1OC` (stereo not shown), the “hERG current change (%, negative = inhibition) at 1uM” value was found to be 13.9%.
